Residue numbers refer to the chain shown, from its start. This is one part of the list.

The labels stand for the following.
T1: RBFOX1 RRM (Homo sapiens, UniProt Q9NWB1 109-208)
T1 sequence: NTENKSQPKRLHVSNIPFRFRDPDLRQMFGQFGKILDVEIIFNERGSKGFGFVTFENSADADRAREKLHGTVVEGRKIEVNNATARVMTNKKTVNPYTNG

B1: CAACUGC (DNA:RNA)
RNA: GGGAGACCGGAAUUCAGAUUGUCCCAACUGCUUAAAUCCCGUCGUAGCCACCA
DNA 1: CAATCTGAATTCCGGTCTCCC
DNA 2: TGGTGGCTACGACGGGATT
B2: UGUCGCA (DNA:RNA)
RNA: B1 RNA with C25U, A26G, A27U, U29G, G30C, C31A
DNA 1: CAATCTGAATTCCGGTCTCCC
DNA 2: TGGTGGCTACGACGGGATT
B3: AGAGGAC (DNA:RNA)
RNA: B1 RNA with C25A, A26G, C28G, U29G, G30A
DNA 1: CAATCTGAATTCCGGTCTCCC
DNA 2: TGGTGGCTACGACGGGATT
B4: AACGUUG (DNA:RNA)
RNA: B1 RNA with C25A, A27C, C28G, G30U, C31G
DNA 1: CAATCTGAATTCCGGTCTCCC
DNA 2: TGGTGGCTACGACGGGATT
B5: UACAGCA (DNA:RNA)
RNA: B1 RNA with C25U, A27C, C28A, U29G, G30C, C31A
DNA 1: CAATCTGAATTCCGGTCTCCC
DNA 2: TGGTGGCTACGACGGGATT
B6: UUUAAUU (DNA:RNA)
RNA: GGGAGACCGGAAUUCAGAUUGUCCUUUAAUUUUAAAUCCCGUCGUAGCCACCA
DNA 1: CAATCTGAATTCCGGTCTCCC
DNA 2: TGGTGGCTACGACGGGATT
B7: AUGUGUG (DNA:RNA)
RNA: B6 RNA with U25A, U27G, A28U, A29G, U31G
DNA 1: CAATCTGAATTCCGGTCTCCC
DNA 2: TGGTGGCTACGACGGGATT
B8: UGGACCC (DNA:RNA)
RNA: B6 RNA with U26G, U27G, A29C, U30C, U31C
DNA 1: CAATCTGAATTCCGGTCTCCC
DNA 2: TGGTGGCTACGACGGGATT
B9: AAGGCUU (DNA:RNA)
RNA: B6 RNA with U25A, U26A, U27G, A28G, A29C
DNA 1: CAATCTGAATTCCGGTCTCCC
DNA 2: TGGTGGCTACGACGGGATT
B10: GUAGCGU (DNA:RNA)
RNA: B1 RNA with C25G, A26U, C28G, U29C, C31U
DNA 1: CAATCTGAATTCCGGTCTCCC
DNA 2: TGGTGGCTACGACGGGATT
B11: GAGUUAC (DNA:RNA)
RNA: B1 RNA with C25G, A27G, C28U, G30A
DNA 1: CAATCTGAATTCCGGTCTCCC
DNA 2: TGGTGGCTACGACGGGATT
B12: AAUCGCA (DNA:RNA)
RNA: B1 RNA with C25A, A27U, U29G, G30C, C31A
DNA 1: CAATCTGAATTCCGGTCTCCC
DNA 2: TGGTGGCTACGACGGGATT
B13: CCUCCAA (DNA:RNA)
RNA: B1 RNA with A26C, A27U, U29C, G30A, C31A
DNA 1: CAATCTGAATTCCGGTCTCCC
DNA 2: TGGTGGCTACGACGGGATT
B14: CGAGAAG (DNA:RNA)
RNA: B1 RNA with A26G, C28G, U29A, G30A, C31G
DNA 1: CAATCTGAATTCCGGTCTCCC
DNA 2: TGGTGGCTACGACGGGATT
B15: GACGGUU (DNA:RNA)
RNA: B6 RNA with U25G, U26A, U27C, A28G, A29G
DNA 1: CAATCTGAATTCCGGTCTCCC
DNA 2: TGGTGGCTACGACGGGATT
B16: UUACAAA (DNA:RNA)
RNA: B6 RNA with U27A, A28C, U30A, U31A
DNA 1: CAATCTGAATTCCGGTCTCCC
DNA 2: TGGTGGCTACGACGGGATT
B17: UCACUAC (DNA:RNA)
RNA: B1 RNA with C25U, A26C, G30A
DNA 1: CAATCTGAATTCCGGTCTCCC
DNA 2: TGGTGGCTACGACGGGATT
B18: AUAUCCC (DNA:RNA)
RNA: B1 RNA with C25A, A26U, C28U, U29C, G30C
DNA 1: CAATCTGAATTCCGGTCTCCC
DNA 2: TGGTGGCTACGACGGGATT
B19: CCGAUAA (DNA:RNA)
RNA: B1 RNA with A26C, A27G, C28A, G30A, C31A
DNA 1: CAATCTGAATTCCGGTCTCCC
DNA 2: TGGTGGCTACGACGGGATT
B20: UGAACUC (DNA:RNA)
RNA: B6 RNA with U26G, U27A, A29C, U31C
DNA 1: CAATCTGAATTCCGGTCTCCC
DNA 2: TGGTGGCTACGACGGGATT

For this assay, the target named is T1, RBFOX1 RRM. The assay is described as follows: EMSA; HiTS-Eq, 1 nM pool, 10 min; buffer printed only for the single-RNA assays: 10 mM Tris pH 7.5, 150 mM NaCl, 3.4 mM EDTA, 0.001% NP-40, 30 C. The conditions noted are these: tags: His6 N-terminal (pET28a); label: 5' 32P. In outline: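 A pool of RNA with 7 randomized nucleotides, 5′-radiolabelled and with DNA-annealed flanks, was equilibrated at 1 nM for 10 min in 50 µL with purified RbFox RRM, wild type or mutant, across increasing protein concentrations. Free RNA was separated by 8% native PAGE, excised, reverse-transcribed, barcoded by PCR and sequenced. Relative association constants were obtained from read-count changes of each RNA species versus the control reaction and normalised to the cognate motif.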
As to B1, the binding signal is 0.00601 KA relative to UGCAUGU.

Regarding B2, the binding signal is 0.0244 KA relative to UGCAUGU.

B3: the binding signal was 0.00634 KA relative to UGCAUGU.

As to B4, the binding signal was 0.0157 KA relative to UGCAUGU.

As to B5, the binding signal was 0.0102 KA relative to UGCAUGU.

Turning to B6, the binding signal was 0.00658 KA relative to UGCAUGU.

For B7, the binding signal is 0.0208 KA relative to UGCAUGU.

B8: the binding signal was 0.022 KA relative to UGCAUGU.

With B9, the binding signal is 0.00698 KA relative to UGCAUGU.

As to B10, the binding signal is 0.0174 KA relative to UGCAUGU.

As to B11, the binding signal is 0.0121 KA relative to UGCAUGU.

For the molecule B12, the binding signal is 0.00618 KA relative to UGCAUGU.

Turning to B13, the binding signal is 0.00154 KA relative to UGCAUGU.

As for B14, the binding signal is 0.0122 KA relative to UGCAUGU.

B15: the binding signal was 0.0211 KA relative to UGCAUGU.

Take B16: the binding signal is 0.000873 KA relative to UGCAUGU.

On to B17, for which the binding signal is 0.000713 KA relative to UGCAUGU.

For the molecule B18, the binding signal is 0.0036 KA relative to UGCAUGU.

With B19, the binding signal was 0.00237 KA relative to UGCAUGU.

With B20, the binding signal is 0.00633 KA relative to UGCAUGU.

The record behind these values is paper PMC9911399, “Two distinct binding modes provide the RNA-binding protein RbFox with extraordinary sequence specificity”.
